Assay results as given in the supplement of paper PMC4604168 (melanoma cell lines).
The other results are listed elsewhere or left out. Many values rest on one well or one pass, so single values are uncertain.

Assays:
Test in all cases: cell count relative to DMSO control; melanoma cells; higher = more viable cells
Settings in all cases: library dose: standard library concentration; 72 h; first compound 2 µM
G361 = tested on: G361
IPC-298 = tested on: IPC-298
IST-MEL1 = tested on: IST-MEL1
LB2518-MEL = tested on: LB2518-MEL
LOXIMVI = tested on: LOXIMVI
MEL-HO = tested on: MEL-HO
MZ2-MEL = tested on: MZ2-MEL
MeWo = tested on: MeWo
RPMI7951 = tested on: RPMI7951
RVH-421 = tested on: RVH-421
SkMel28 = tested on: SkMel28
SkMel2 = tested on: SkMel2
SkMel30 = tested on: SkMel30
SkMel5 = tested on: SkMel5
UACC257 = tested on: UACC257
UACC62 = tested on: UACC62
WM115 = tested on: WM115
WM1716 = tested on: WM1716
WM1745 = tested on: WM1745
WM3526 = tested on: WM3526
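Further: cells treated in 1,536-well plates, then fixed and DAPI-stained, with nuclei counted from automated high-throughput microscope images.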

Row | SMILES | cell count (G361) [%] | cell count (IPC-298) [%] | cell count (IST-MEL1) [%] | cell count (LB2518-MEL) [%] | cell count (LOXIMVI) [%] | cell count (MEL-HO) [%] | cell count (MZ2-MEL) [%] | cell count (MeWo) [%] | cell count (RPMI7951) [%] | cell count (RVH-421) [%] | cell count (SkMel28) [%] | cell count (SkMel2) [%] | cell count (SkMel30) [%] | cell count (SkMel5) [%] | cell count (UACC257) [%] | cell count (UACC62) [%] | cell count (WM115) [%] | cell count (WM1716) [%] | cell count (WM1745) [%] | cell count (WM3526) [%]
1 | CCCCCCCCCCCCCCCCCCOP(=O)([O-])OC1CC[N+](C)(C)CC1 [Perifosine] + CN(c1ncccc1CNc1nc(Nc2ccc3c(c2)CC(=O)N3)ncc1C(F)(F)F)S(C)(=O)=O [PF562271] (partner dose 0.4 µM) | 115 | 97 | 95.9 | 92.1 | 62.9 | 44.5 | 111 | 91.1 | 6.06 | 116 | 109 | 113 | 87.4 | 95.9 | 86.3 | 58 | 87.6 | 79.9 | 88.3 | 90.9
2 | Cn1sc(=O)n(Cc2ccccc2)c1=O + CC(C)C[C@H](NC(=O)[C@H](Cc1ccccc1)NC(=O)c1cnccn1)B(O)O [Bortezomib] (partner dose 0.005 µM) | 2.11 | 8.92 | 21.3 | 1.83 | 20.7 | 36.7 | 5.37 | 19 | 4.06 | 33 | 23.2 | 47.6 | 34 | 34.1 | 86.3 | 58.9 | 47.5 | 12.6 | 15.8 | 26.2
3 | Cn1sc(=O)n(Cc2ccccc2)c1=O + CCN(CC)CCNC(=O)c1c(C)[nH]c(/C=C2\C(=O)Nc3ccc(F)cc32)c1C [sunitinib] (partner dose 2 µM) | 87.3 | 73.7 | 99.9 | 65.3 | 114 | 106 | 95 | 57.7 | 69.2 | 93.6 | 81.1 | 83.4 | 63.9 | 60 | 95.6 | 56.1 | 62.5 | 104 | 53.8 | 55.1
4 | Cn1sc(=O)n(Cc2ccccc2)c1=O + CC(=O)O[C@@]12CO[C@@H]1C[C@H](O)[C@@]1(C)C(=O)[C@H](O)C3=C(C)[C@@H](OC(=O)[C@H](O)[C@@H](NC(=O)OC(C)(C)C)c4ccccc4)C[C@@](O)([C@@H](OC(=O)c4ccccc4)[C@H]21)C3(C)C [Docetaxel] (partner dose 0.0005 µM) | 20 | 47.1 | 46.2 | 54.1 | 62.3 | 47.7 | 47.4 | 30.2 | 23.2 | 67.7 | 18.1 | 29 | 51.2 | 37.9 | 75.7 | 59.3 | 58.4 | 34.1 | 45.7 | 42.9
5 | Cn1sc(=O)n(Cc2ccccc2)c1=O + Nc1nc(F)nc2c1ncn2[C@@H]1O[C@H](CO)[C@@H](O)[C@@H]1O [fludarabine] (partner dose 1 µM) | 85.9 | 71.8 | 69.5 | 80.4 | 95.7 | 71.2 | 87.4 | 89 | 49.2 | 67.9 | 1.55 | 1.52 | 16.6 | 27.5 | 32.5 | 82.5 | 86.4 | 82.8 | 125 | 21.1
6 | C[C@@H](N)c1ccc(C(=O)Nc2ccnc3[nH]ccc23)cc1 + O=C(O)[C@@H]1[O][Sb](=[O])([O][Sb]2(=[O])[O][C@H]([C@H](O)CO)[C@H](O)[C@H](C(=O)O)[O]2)[O][C@H]([C@H](O)CO)[C@@H]1O [stibogluconate] (partner dose 10 µM) | 110 | 113 | 106 | 186 | 124 | 76.2 | 62.4 | 72.1 | 60.1 | 79.9 | 127 | 117 | 85.6 | 53.9 | 70.8 | 105 | 102 | 48.9 | 54.5 | 89.3
7 | Cn1sc(=O)n(Cc2ccccc2)c1=O + CS(=O)(=O)c1ccc(C(=O)Nc2ccc(Cl)c(-c3ccccn3)c2)c(Cl)c1 [vismodegib] (partner dose 5 µM) | 100 | 93.7 | 110 | 89.1 | 110 | 94.9 | 94.1 | 79.9 | 87.8 | 118 | 100 | 111 | 106 | 114 | 114 | 100 | 93.3 | 100 | 87.8 | 101
8 | Cn1sc(=O)n(Cc2ccccc2)c1=O + C=CCn1c(=O)c2cnc(Nc3ccc(N4CCN(C)CC4)cc3)nc2n1-c1cccc(C(C)(C)O)n1 [MK1775] (partner dose 0.1 µM) | 97.6 | 87.1 | 100 | 57.9 | 98.6 | 101 | 128 | 86 | 63.4 | 93 | 73.1 | 81.5 | 78.7 | 67.6 | 92.1 | 62.5 | 67.4 | 106 | 56.6 | 96.4
9 | Cn1sc(=O)n(Cc2ccccc2)c1=O + OCc1c[nH]c2ccccc12 [Indole-3-carbinol] (partner dose 4 µM) | 105 | 100 | 111 | 91.7 | 89.7 | 107 | 101 | 89.5 | 119 | 100 | 117 | 104 | 95.6 | 94.2 | 127 | 94.7 | 97.5 | 113 | 114 | 97.9
